Results taken from the RNAGym collection of RNA variant scans (doi:10.1073/pnas.2313332121).
Variants at the floor of the assay are shown more often than the library holds them.

B1: TPR 5TU (parent)
chain: GGAUCUUCUCGAUCUAACAAAAAAGACAAAUCUGCCACAAAGCUUGAGAGCAUCUUCGGAUGCAGAGGCGGCAGCCUUCGGUGGCGCGAUAGCGCCAACGUUCUCAACUAUGACACGCAAAACGCGUGCUCCGUUGAAUGGAGUUUAUCAUG

Variants of: B1
Assay: polymerase ribozyme fitness, log enrichment relative to wild type (log ratio); higher = more active; in vitro selection for triplet polymerase activity
How it was run: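 Fitness measures genotype enrichment against wild-type enrichment on a logarithmic scale, with inverse-variance-weighted averaging of replicates. The logarithm is base 2, and genotypes were kept only with ≥10 input reads and ≥1 read per output in Illumina sequencing. The sequenced libraries came from one triplicate in vitro selection round, including frozen incubation at −7 °C, of PCR-built, transcribed mutant libraries of each subunit of a heterodimeric triplet polymerase ribozyme.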

Polymerase ribozyme fitness (log ratio), ≤ -4.2:
GGAUCUUCUCGAUCUAACAAAAAAGACAAAUCUGACACAAAGCUUGAGAGCGUCUUCGGAUGCAGAGGCGGGUGUCUUAGGUGGCGCGAUAGCGGCAACGUUGUCAACUAUGACACGCAAAACGCGUGCUCCGUUGAAUGGAGUUUAUCAUG
GGAUCUUCUCGAUCUAACAAAAAAGACAAAUCUGACACAAAGCUUGAGAGCAUCUUCGGCUGCAGAGGCGGCAGCCUUCGGUGGCGCGAUAGCGCCAACGUUCUCAACUAUGACACGCAAAACGCGUGCUCCGUUGAAUGGAGUUUAUCAUG
GGAUCUUCUCGAUCUAACAAAAAAGACAAAUCUGACACAAAGCUUGAGAGCAUCUUCGGCUGCAGAGGCGGCAGCCUUCGGUGGCGCGAUAGCGCCAACGUGCUCAACUAUGACCCGCAAAACGUGUGCUCCGUAGAAUGGAGUUUAUCAUG
GGAUCUUCUCGAUCUAACAAAAAAGACAAAUCUGACACAAAGCUUGAGAGCAUCUUCGGAUGCAGGGGCUGCAGCCUUCGGUGGCGGGAUAGCGCGAACGUUCUCAACUAUGACACGCAAUACGCGUGCUCCGUUGAAUGGAGUUUAUUAUG
GGAUCUUCUCGAUCUAACAAAAAAGACAAAUCUGACACAAAGCUUGAGAGCAUCUUCGGAUGCAGAGGCGGCAGCCUUCGGUGGCGCGAUUGCGCCUAUGUUCUCAACUAUGACACGCAAAACGCGUGCUCCGUUGAAUGGAGUUUAUCAUG
GGAUCUUCUCGAUCUAACAAAAAAGACAAAUCUGAAACAAAGCUUGAGAGCGUCUUCGGCUGCAGAGGCGGCAGCCUUCGGUGGCGCGAUAGCGCCAACGUUCUCAACUAUGACACGCAAAACGCGUGCUCAGUUGAAUGGAGUUUAUCAUG
GGAUCUUCUCGAUCUAACAAAAAAGACAAAUCUGAUACAAAGCUUGAGAGCAUCUUCGGAUGCAGAGGCGGCAGCCCUCGGUGGCGCGAUAGCGCCAACGUUCUCUACUAUGACACGCAAAACGCGUGCUCCGUUGAAUGGAGUUUGUCAUG
GGAUCUUCUCGAUCUAACAAAAAAGACAAAUCUGACACAAAGCUUGAGAGCAUCUUCGGAUGCAGAGGGGGCAGCCUUCGGUGGAGCGAUAGCGCCAAGGUUCUCAACUAUGACACGCAAAUCGAGUGCUCCGUUGAAUGGAGUUAAACAUG
GGAUCUUCUCGAUCUAACAAAAAAGACAAAUCUGACACAAAGCUUGAGAGCAUCUUCGGAUGCAGAGGCGGCAGUCUUCGGUGACGCGAUAGCGCCAACGUUCUCAACUAUGACACGCAAAACACGUGCUCCGUUGAAUGGAGUUUAUCAUG
GGAUCUUCUCGAUCUAACAAAAAAGACAAAUCUGACACAAAGCUUGAGAGCAUCUUCGGAUGCAGAGGCGGCAGCGUUCGGUGGCGCGAUAGCGCAAACGUUCUCAACUAUGGCACGCAGAACGCGUGCUCCGUUGAAUGGAGUUUAUCGUG
GGAUCUUCUCGAUCUAACAAAAAAGACAAAUCUGACACAAAGCUUGAGAGCAUCUUCGGAUGCAGAGGCGGCAGCUUUCGGUAGCGCGAUAGCGCCAUCGUUCUAAACUAUGACACGCAAAACUCGUGUUCCGUUGAAUGGAGUUUAUCAUG
GGAUCUUCUCGAUCUAACAAAAAAGACAAAUCUGACACAAAGCUUGAGAGCAUCUUCGGAUGCAGAGGCGGCAGCCUUAGGUAGCGCGAUAGCGCCAAAGUUCUCAACUAUGACACGCAAAACGCGUGCUCCGUUGAAUGGAGUUUAUCAUG
GGAUCUUCUCGAUCUAACAAAAAAGACAAAUCUGACACAAAGCUUGAGAGCAUCUUCGGAUGCAGAGGCGGCAGCCUUCGGUGGGGCGAUAACGCCAACGUUCUCAACUAUGACCCGCAAAUCGCGUGCUCCGUUGAAUGGAGUUUAUCAUG
GGAUCUUCUCGAUCUAACAAAAAAGACAAAUCUGACACAAAGCUUGAGAGCAUCUUCGGAUGCAGAGGCGGCAGCCUUCGGUGGUGCGAUAGCGCCAAUGUUCUCAACUAUGACACGCAAAACGCGUGCUCCGUUGAAUGGAGUUUACCAUG
GGAUCUUCUCGAUCUAACAAAAAAGACAAAUCUGACACAAAGCUUGAGAGCAUCUUCGGAUGCAGAGGCGGCAGCCUUCGGUGGUGCGAUAGCGCCAACGUUCUCAACUAUGACACGCAAAACGCCUGCUCCGUUGAAUGGAGUUUAUCAUG
GGAUCUUCUCGAUCUAACAAAAAAGACAAAUCUGACACAAAGCUUGAGAGCAUCUUCGGAUGCAGAGGCGGCAGCCUUCGGUGGCGCGAUAGCGCCAACGUUCUCAAAUAUGACACGCAAAACGCGUGCUCCGUUGAAUGGAGUUUAUCAUG
GGAUCUUCUCGAUCUAACAAAAAAGACAAAUCUGACACAAAUCUUGAGAGCAUCUUCGGAUGCAGAGGCGGCAGCCUUCGGUGGCGCGAUAGCGCCAACGUUCUCAACUAUGACACGCAAAACGCGUACUCCGUUGAAUGCAGUUUAUCAUG
GGAUCUUCUCGAUCUAACAAAAAAGACAAAUCUGACACAAAGCUUGAAAGCAUCUUCGGCUGCAGAGGCGGCAGCUUUCGGUGGCGCGAUAACGCCAACGUUCUCAACUAUGACACGCAAAACGCGUGCUCCGUUGAUUGGAGUUUAUCAUG
GGAUCUUCUCGAUCUAACAAAAAAGACAAAUCUGACACAAAGCUUGAGAGCAUCUUCAGAUGCAGAGGCGGCAGCCUUCGGUUGCGCGAUACCGCCAACGUUCUCAACUAUGACACGCAAAACGCGUGCUCCGUUGAAUGGAGUUUAUCAUA
